Reference: PubChem BioAssay (NCATS)
The shares of active, inactive and inconclusive entries below differ from those in the screen. A potency beside an inconclusive call is a rough fit, not a confirmed value. Calls of active or inactive are those of the source. Calls follow the shape of the dose curve; as a rule, active = well fitted inhibition curve with a large enough effect; inconclusive = small, poorly fitted or top-dose-only effect; inactive = no such curve, though single readings can be large or run the other way.

Target: Retinaldehyde dehydrogenase 3 (Homo sapiens) (UniProt P47895)
Assay: qHTS for Inhibitors of the Aldehyde Dehydrogenase Family (ALDH1A3) Primary screen (AID 2061315)
Conditions: ALDH inhibition qHTS; series mostly up to 56 µM
Potency is read from the fitted curve at half-maximal effect; tags tell the direction and shape of the fitted curve.

SMILES | Potency
O=C(Nc1ccc(-c2ccccc2)cc1)Nc1nnc(-c2ccncc2)s1 | inactive
O=[N+]([O-])c1ccc(CNc2nc(NCc3cccc(C(F)(F)F)c3)nc3nc[nH]c23)cc1 | inactive
O=C(NCCc1ccc(O)c(O)c1)c1cc2sccc2n1Cc1ccccc1 | inconclusive: 3.55 µM [inhibitor, partial curve, poor fit]
FC(F)(F)c1cc(-c2ccc(CNc3nc(-c4ccccc4C(F)(F)F)nc4ccsc34)cc2)ccn1 | inconclusive: 10 µM [inhibitor, partial curve, poor fit]
O=C(NCCN1CCCC1)c1cc(-c2ccc(CN3CCOCC3)cc2)nc2ccc(F)cc12 | inactive
C/C=C/C1=CC2=C(CO1)C(=O)[C@](C)(O)[C@H](OC(=O)c1c(O)cc(OC)c(O)c1C)C2 | inconclusive: 5.01 µM [inhibitor, partial curve, poor fit]
CC(/C=C/C1(O)C(C)CC(O)CC1(C)C)OC1OC(CO)C(O)C(O)C1O (stereo unspecified) | inconclusive: 17.8 µM [inhibitor, single point]
O=C(NO)c1cnc(N2CCN(S(=O)(=O)c3ccc4ccccc4c3)CC2)nc1 | inconclusive: 20 µM [inhibitor, single point]
O=S(=O)(Nc1cccc2cccnc12)c1ccc2ccccc2c1 | inconclusive: 8.91 µM [inhibitor, partial curve, poor fit]
COC1CC(=O)CCC(C)OC(=O)CC1O (stereo unspecified) | inactive
COC(=O)c1c(CC=C(C)C)c(OC2OC(CO)C(O)C(O)C2O)c2ccccc2c1OC1OC(CO)C(O)C(O)C1O (stereo unspecified) | inconclusive: 7.94 µM [inhibitor, single point]
